{"source": "the supplement of paper PMC8728848", "binders": {"B1": {"name": "PX14375l-pdi-526-25-526 (Parabacteroides distasonis) (protein)", "chain": "DEEPKSTLTDVAYYKTQSQMESNVNYLYRTGAIGSYVDFGSAYIGPFASIQEELTGYFSNSYEGQEIVCRYTRELTRQQNTMQLASKMDKVWDDCYRGINVANGAIKHMPEVPMDQATADRLTAEAKFFRAFNYFYLVKTFGAVPFYTDPYELAENMELPRTETSTIYNQIESDLKDAMNVLPEATFAANGHRITKYVAAMTLTDVYMYQHKYAEAAETVRIVVNSNHKLTTNDDLAMNSAFNKLRSTDDLDEAIYAYEYDNQISPSNWLPTYAFDGDASSNGLFGTYAITQKVHGPNDRYLNIYESNDLRRQPNQFYHWTYTNPKTGKVWNSVGNAACCWYYYDEDALLTTGRGTKDWNVYRYAEALLDAAESIAQSTGVTAEAAGYLAQVKARANMEGKTAAEIASSLQSMGKQAFIEECWTERLRELPLEFKMWDMCVRTGMFPNISETTPGQVTYIPLVGAKNASGATIKESDLLWPLSVNEIQRNPSLTQNEGYSAK"}}, "assay_in_all_cases": "glycan array binding signal (z-score within array); higher = stronger binding", "conditions_in_all_cases": "glycan notation: IUPAC condensed, linker removed", "key": {"[1]": {"target": "Gal(b1-4)GlcNAc(b1-3)Gal(b1-4)GlcNAc(b1-3)Gal(b1-4)GlcNAc(b1-3)Gal(b1-4)GlcNAc(b1-2)Man(a1-3)[Gal(b1-4)GlcNAc(b1-3)Gal(b1-4)GlcNAc(b1-3)Gal(b1-4)GlcNAc(b1-3)Gal(b1-4)GlcNAc(b1-2)Man(a1-6)]Man(b1-4)GlcNAc(b1-4)[Fuc(a1-6)]GlcNAc", "how_it_was_run": "(§1)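 The Consortium for Functional Glycomics database supplied 3228 glycan arrays, of which those lacking an available protein sequence were dropped. The binding signal, a within-array Z-score, was averaged across arrays of the same protein sequence and across linkers. Negative scores can be read as non-binding.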"}, "[2]": {"target": "Gal(b1-4)GlcNAc(b1-3)Gal(b1-4)GlcNAc(b1-3)Gal(b1-4)GlcNAc(b1-3)Gal(b1-4)GlcNAc(b1-2)[Gal(b1-4)GlcNAc(b1-3)Gal(b1-4)GlcNAc(b1-3)Gal(b1-4)GlcNAc(b1-3)Gal(b1-4)GlcNAc(b1-6)]Man(a1-6)[Gal(b1-4)GlcNAc(b1-3)Gal(b1-4)GlcNAc(b1-3)Gal(b1-4)GlcNAc(b1-3)Gal(b1-4)GlcNAc(b1-2)Man(a1-3)]Man(b1-4)GlcNAc(b1-4)[Fuc(a1-6)]GlcNAc", "how_it_was_run": "as §1"}, "[3]": {"target": "Gal(b1-4)GlcNAc(b1-3)Gal(b1-4)GlcNAc(b1-3)Gal(b1-4)GlcNAc(b1-3)Gal(b1-4)GlcNAc(b1-3)Gal(b1-4)GlcNAc(b1-2)Man(a1-3)[Gal(b1-4)GlcNAc(b1-3)Gal(b1-4)GlcNAc(b1-3)Gal(b1-4)GlcNAc(b1-3)Gal(b1-4)GlcNAc(b1-3)Gal(b1-4)GlcNAc(b1-2)Man(a1-6)]Man(b1-4)GlcNAc(b1-4)GlcNAc", "how_it_was_run": "as §1"}, "[4]": {"target": "Gal(b1-4)GlcNAc(b1-3)Gal(b1-4)GlcNAc(b1-3)Gal(b1-4)GlcNAc(b1-3)Gal(b1-4)GlcNAc(b1-3)Gal(b1-4)GlcNAc(b1-2)Man(a1-3)[Gal(b1-4)GlcNAc(b1-3)Gal(b1-4)GlcNAc(b1-3)Gal(b1-4)GlcNAc(b1-3)Gal(b1-4)GlcNAc(b1-3)Gal(b1-4)GlcNAc(b1-2)Man(a1-6)]Man(b1-4)GlcNAc(b1-4)[Fuc(a1-6)]GlcNAc", "how_it_was_run": "as §1"}, "[5]": {"target": "Gal(b1-4)GlcNAc(b1-3)Gal(b1-4)GlcNAc(b1-3)Gal(b1-4)GlcNAc(b1-3)Gal(b1-4)GlcNAc(b1-3)Gal(b1-4)GlcNAc(b1-2)[Gal(b1-4)GlcNAc(b1-3)Gal(b1-4)GlcNAc(b1-3)Gal(b1-4)GlcNAc(b1-3)Gal(b1-4)GlcNAc(b1-3)Gal(b1-4)GlcNAc(b1-6)]Man(a1-6)[Gal(b1-4)GlcNAc(b1-3)Gal(b1-4)GlcNAc(b1-3)Gal(b1-4)GlcNAc(b1-3)Gal(b1-4)GlcNAc(b1-3)Gal(b1-4)GlcNAc(b1-2)Man(a1-3)]Man(b1-4)GlcNAc(b1-4)[Fuc(a1-6)]GlcNAc", "how_it_was_run": "as §1"}, "[6]": {"target": "Gal(b1-4)GlcNAc(b1-3)Gal(b1-4)GlcNAc(b1-3)Gal(b1-4)GlcNAc(b1-3)Gal(b1-4)GlcNAc(b1-3)Gal(b1-4)GlcNAc(b1-3)Gal(b1-4)GlcNAc(b1-2)Man(a1-3)[Gal(b1-4)GlcNAc(b1-3)Gal(b1-4)GlcNAc(b1-3)Gal(b1-4)GlcNAc(b1-3)Gal(b1-4)GlcNAc(b1-3)Gal(b1-4)GlcNAc(b1-3)Gal(b1-4)GlcNAc(b1-2)Man(a1-6)]Man(b1-4)GlcNAc(b1-4)GlcNAc", "how_it_was_run": "as §1"}, "[7]": {"target": "Gal(b1-4)GlcNAc(b1-3)Gal(b1-4)GlcNAc(b1-3)GalNAc", "how_it_was_run": "as §1"}, "[8]": {"target": "Gal(b1-4)GlcNAc(b1-3)Gal(b1-4)GlcNAc(b1-3)[Gal(b1-4)GlcNAc(b1-3)Gal(b1-4)GlcNAc(b1-6)]GalNAc", "how_it_was_run": "as §1"}, "[9]": {"target": "Gal(b1-4)GlcNAc(b1-3)Gal(b1-4)GlcNAc(b1-6)[Gal(b1-3)]GalNAc", "how_it_was_run": "as §1"}, "[10]": {"target": "Gal(b1-4)GlcNAc(b1-3)Gal(b1-4)[Fuc(a1-3)]GlcNAc(b1-3)Gal(b1-4)[Fuc(a1-3)]GlcNAc", "how_it_was_run": "as §1"}, "[11]": {"target": "Gal(b1-4)GlcNAc(b1-3)GalNAc", "how_it_was_run": "as §1"}, "[12]": {"target": "Gal(b1-4)GlcNAc(b1-3)[Fuc(a1-3)GlcNAc(b1-6)]Gal(b1-4)Glc", "how_it_was_run": "as §1"}, "[13]": {"target": "Gal(b1-4)GlcNAc(b1-3)[Gal(b1-4)GlcNAc(b1-6)]Gal(b1-4)GlcNAc", "how_it_was_run": "as §1"}, "[14]": {"target": "Gal(b1-4)GlcNAc(b1-3)[GlcNAc(b1-6)]Gal(b1-4)GlcNAc", "how_it_was_run": "as §1"}, "[15]": {"target": "Gal(b1-4)GlcNAc(b1-6)Gal(b1-4)GlcNAc", "how_it_was_run": "as §1"}, "[16]": {"target": "Gal(b1-4)GlcNAc(b1-6)GalNAc", "how_it_was_run": "as §1"}, "[17]": {"target": "Gal(b1-4)GlcNAc(b1-6)[Gal(b1-3)]GalNAc", "how_it_was_run": "as §1"}, "[18]": {"target": "Gal(b1-4)GlcNAc(b1-6)[Gal(b1-4)GlcNAc(b1-3)]GalNAc", "how_it_was_run": "as §1"}, "Gal(b1-4)GlcNAc6P": {"target": "Gal(b1-4)GlcNAc6P", "how_it_was_run": "as §1"}, "Gal(b1-6)Gal": {"target": "Gal(b1-6)Gal", "how_it_was_run": "as §1"}, "Gal3S(b1-3)GalNAc": {"target": "Gal3S(b1-3)GalNAc", "how_it_was_run": "as §1"}, "Gal3S(b1-3)GlcNAc": {"target": "Gal3S(b1-3)GlcNAc", "how_it_was_run": "as §1"}, "[19]": {"target": "Gal3S(b1-3)[Fuc(a1-4)]GlcNAc", "how_it_was_run": "as §1"}, "Gal3S(b1-4)Glc": {"target": "Gal3S(b1-4)Glc", "how_it_was_run": "as §1"}, "Gal3S(b1-4)Glc6S": {"target": "Gal3S(b1-4)Glc6S", "how_it_was_run": "as §1"}, "Gal3S(b1-4)GlcNAc": {"target": "Gal3S(b1-4)GlcNAc", "how_it_was_run": "as §1"}, "[20]": {"target": "Gal3S(b1-4)[Fuc(a1-3)]Glc6S", "how_it_was_run": "as §1"}, "[21]": {"target": "Gal3S(b1-4)[Fuc(a1-3)]GlcNAc", "how_it_was_run": "as §1"}, "[22]": {"target": "Gal3S(b1-4)[Fuc(a1-3)]GlcNAc6S", "how_it_was_run": "as §1"}, "Gal3S4S(b1-4)GlcNAc": {"target": "Gal3S4S(b1-4)GlcNAc", "how_it_was_run": "as §1"}, "Gal3S6S(b1-4)GlcNAc": {"target": "Gal3S6S(b1-4)GlcNAc", "how_it_was_run": "as §1"}, "Gal3S6S(b1-4)GlcNAc6S": {"target": "Gal3S6S(b1-4)GlcNAc6S", "how_it_was_run": "as §1"}, "Gal4S(b1-4)GlcNAc": {"target": "Gal4S(b1-4)GlcNAc", "how_it_was_run": "as §1"}, "Gal4S6S(b1-4)GlcNAc": {"target": "Gal4S6S(b1-4)GlcNAc", "how_it_was_run": "as §1"}, "Gal6P(b1-4)GlcNAc": {"target": "Gal6P(b1-4)GlcNAc", "how_it_was_run": "as §1"}, "Gal6S(b1-3)GlcNAc": {"target": "Gal6S(b1-3)GlcNAc", "how_it_was_run": "as §1"}, "Gal6S(b1-3)GlcNAc6S": {"target": "Gal6S(b1-3)GlcNAc6S", "how_it_was_run": "as §1"}, "Gal6S(b1-4)Glc": {"target": "Gal6S(b1-4)Glc", "how_it_was_run": "as §1"}}, "note": "Some of the results follow."}
{"binder": "B1", "values": [{"measurement": "glycan array binding signal (z-score)", "setting": "[1]", "value": -0.06}, {"measurement": "glycan array binding signal (z-score)", "setting": "[2]", "value": 1.05}, {"measurement": "glycan array binding signal (z-score)", "setting": "[3]", "value": -0.127}, {"measurement": "glycan array binding signal (z-score)", "setting": "[4]", "value": 0.149}, {"measurement": "glycan array binding signal (z-score)", "setting": "[5]", "value": 0.485}, {"measurement": "glycan array binding signal (z-score)", "setting": "[6]", "value": 0.024}, {"measurement": "glycan array binding signal (z-score)", "setting": "[7]", "value": 0.445}, {"measurement": "glycan array binding signal (z-score)", "setting": "[8]", "value": 0.427}, {"measurement": "glycan array binding signal (z-score)", "setting": "[9]", "value": -0.398}, {"measurement": "glycan array binding signal (z-score)", "setting": "[10]", "value": -0.334}, {"measurement": "glycan array binding signal (z-score)", "setting": "[11]", "value": -0.261}, {"measurement": "glycan array binding signal (z-score)", "setting": "[12]", "value": -0.241}, {"measurement": "glycan array binding signal (z-score)", "setting": "[13]", "value": 0.132}, {"measurement": "glycan array binding signal (z-score)", "setting": "[14]", "value": -0.154}, {"measurement": "glycan array binding signal (z-score)", "setting": "[15]", "value": -0.2}, {"measurement": "glycan array binding signal (z-score)", "setting": "[16]", "value": -0.181}, {"measurement": "glycan array binding signal (z-score)", "setting": "[17]", "value": -0.282}, {"measurement": "glycan array binding signal (z-score)", "setting": "[18]", "value": -0.16}, {"measurement": "glycan array binding signal (z-score)", "setting": "Gal(b1-4)GlcNAc6P", "value": -0.245}, {"measurement": "glycan array binding signal (z-score)", "setting": "Gal(b1-6)Gal", "value": -0.432}, {"measurement": "glycan array binding signal (z-score)", "setting": "Gal3S(b1-3)GalNAc", "value": -0.06}, {"measurement": "glycan array binding signal (z-score)", "setting": "Gal3S(b1-3)GlcNAc", "value": -0.041}, {"measurement": "glycan array binding signal (z-score)", "setting": "[19]", "value": -0.094}, {"measurement": "glycan array binding signal (z-score)", "setting": "Gal3S(b1-4)Glc", "value": 0.572}, {"measurement": "glycan array binding signal (z-score)", "setting": "Gal3S(b1-4)Glc6S", "value": -0.056}, {"measurement": "glycan array binding signal (z-score)", "setting": "Gal3S(b1-4)GlcNAc", "value": -0.224}, {"measurement": "glycan array binding signal (z-score)", "setting": "[20]", "value": -0.014}, {"measurement": "glycan array binding signal (z-score)", "setting": "[21]", "value": -0.043}, {"measurement": "glycan array binding signal (z-score)", "setting": "[22]", "value": -0.125}, {"measurement": "glycan array binding signal (z-score)", "setting": "Gal3S4S(b1-4)GlcNAc", "value": -0.164}, {"measurement": "glycan array binding signal (z-score)", "setting": "Gal3S6S(b1-4)GlcNAc", "value": 0.009}, {"measurement": "glycan array binding signal (z-score)", "setting": "Gal3S6S(b1-4)GlcNAc6S", "value": -0.107}, {"measurement": "glycan array binding signal (z-score)", "setting": "Gal4S(b1-4)GlcNAc", "value": 0}, {"measurement": "glycan array binding signal (z-score)", "setting": "Gal4S6S(b1-4)GlcNAc", "value": -0.144}, {"measurement": "glycan array binding signal (z-score)", "setting": "Gal6P(b1-4)GlcNAc", "value": 0.101}, {"measurement": "glycan array binding signal (z-score)", "setting": "Gal6S(b1-3)GlcNAc", "value": -0.207}, {"measurement": "glycan array binding signal (z-score)", "setting": "Gal6S(b1-3)GlcNAc6S", "value": 9.53}, {"measurement": "glycan array binding signal (z-score)", "setting": "Gal6S(b1-4)Glc", "value": -0.134}]}
